Measurements reported in paper PMC4336329 (PLoS ONE, 2015).
Out of some 310,000 compounds screened, about 2,200 (0.71%) showed an effect of 50% or more. The effect is printed as a negative number. Some of the results follow.

target: human ether-à-go-go-related gene (hERG) potassium channel (human, UniProt Q12809); assay: primary screen, population patch clamp on CHO cells stably expressing hERG
Sequence (Q12809 whole entry, looked up): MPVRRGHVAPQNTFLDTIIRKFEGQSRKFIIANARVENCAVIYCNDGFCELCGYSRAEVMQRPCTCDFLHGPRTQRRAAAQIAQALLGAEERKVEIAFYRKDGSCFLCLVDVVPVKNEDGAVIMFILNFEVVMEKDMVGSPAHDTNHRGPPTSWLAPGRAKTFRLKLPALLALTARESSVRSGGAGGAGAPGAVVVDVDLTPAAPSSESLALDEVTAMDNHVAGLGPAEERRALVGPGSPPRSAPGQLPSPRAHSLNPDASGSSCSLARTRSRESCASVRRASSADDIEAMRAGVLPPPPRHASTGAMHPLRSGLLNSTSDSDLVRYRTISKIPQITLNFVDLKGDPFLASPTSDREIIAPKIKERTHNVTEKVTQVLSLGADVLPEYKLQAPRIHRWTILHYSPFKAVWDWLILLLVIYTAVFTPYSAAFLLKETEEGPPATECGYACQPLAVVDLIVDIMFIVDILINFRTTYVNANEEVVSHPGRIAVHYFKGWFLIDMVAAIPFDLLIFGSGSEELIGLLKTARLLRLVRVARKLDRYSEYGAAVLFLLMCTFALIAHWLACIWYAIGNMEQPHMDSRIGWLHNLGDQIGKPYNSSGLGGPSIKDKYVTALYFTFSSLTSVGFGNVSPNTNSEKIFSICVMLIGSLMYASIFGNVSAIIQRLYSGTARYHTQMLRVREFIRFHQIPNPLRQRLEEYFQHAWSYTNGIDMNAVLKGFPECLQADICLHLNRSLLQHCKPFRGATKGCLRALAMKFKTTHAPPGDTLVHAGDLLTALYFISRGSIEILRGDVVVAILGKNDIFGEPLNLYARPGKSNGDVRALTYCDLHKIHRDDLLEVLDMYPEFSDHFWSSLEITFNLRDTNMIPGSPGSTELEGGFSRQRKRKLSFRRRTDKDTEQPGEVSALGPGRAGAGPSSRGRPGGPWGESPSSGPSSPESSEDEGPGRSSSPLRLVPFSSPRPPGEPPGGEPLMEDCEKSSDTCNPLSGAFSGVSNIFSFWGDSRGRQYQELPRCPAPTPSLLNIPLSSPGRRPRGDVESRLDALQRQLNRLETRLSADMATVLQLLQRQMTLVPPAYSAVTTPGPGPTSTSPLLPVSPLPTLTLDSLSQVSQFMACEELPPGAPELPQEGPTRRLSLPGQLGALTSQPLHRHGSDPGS

| SMILES | hERG current change (%, negative = inhibition) at 1uM [%] |
| --- | --- |
| Cc1ccc(NC(=O)Cn2cc(C=O)c3ccccc32)cc1C | 11.1 |
| COC(=O)C1CN(C(=O)COc2cc(C)cc(C)c2)c2ccccc2O1 (stereo not shown) | 14.3 |
| CC1(C)C[C@@H]1C(=O)N/C(=C\CCCCSC[C@H](N)C(=O)O)C(=O)[O-].[Na+] | 9.33 |
| CCCCS(=O)(=O)c1sc2nc3c(cc2c1N)CCCC3 | 13.7 |
| CNc1ccc(/C=C(\C#N)c2ccccn2)cc1[N+](=O)[O-] | 18.5 |
| CC(C)CCn1c(CN2CCN(c3cccc(Cl)c3)CC2)nc2c1c(=O)n(C)c(=O)n2C | 7.88 |
| O=[N+]([O-])c1cc(Cl)cc(/C=N/n2cnnc2)c1O | 13.4 |
| CCN(CC)CCCNc1nc2ccccc2c2nc(-c3ccncc3)nn12 | -34.6 |
| O=C(CNC(=O)C1CCCCC1)NC1CCCCC1 | 13.5 |
| COc1ccc(C(=O)NC(=S)NNC(=O)[C@H]2C[C@@H]2c2ccccc2)cc1OC | 13.2 |
| CC(C)(C)c1ccc(OCCC(=O)OCC(=O)NC(=O)NC2CCCC2)cc1 | 6.19 |
| COc1ccc(NC(=O)Nc2nnc(-c3ccncc3)s2)cc1 | 25.4 |
| Cc1ccc(S(=O)(=O)NCC(=O)N(c2ccccc2)C(C(=O)NCc2ccccc2)c2ccco2)cc1 (stereo not shown) | -0.277 |
| COc1cccc(NC(=S)N2CCN(C/C=C/c3ccccc3)CC2)c1 | -9.7 |
| CCOC(=O)N1CCC(NC(=O)c2ccc(OC)c(CN3CC(=O)N4CCCC4C3=O)c2)CC1 (stereo not shown) | 11.4 |
| COc1ccccc1OCCOCCOc1ccc(C)cc1Br | 13.5 |
| CCN(CC)c1ccc(C(=O)N2CCN(Cc3ccccc3)CC2)cc1 | 0.601 |
| Cn1c(C(=O)O)c(S(=O)(=O)c2ccc(Cl)cc2)c2ccccc21 | 15.3 |
| Cc1ccc(S(=O)(=O)N2CCOCC2)cc1C(=O)OCC(=O)NC1CCS(=O)(=O)C1 (stereo not shown) | 13.8 |
| CC(=O)Nc1ccc(OCC[n+]2cccc(C(N)=O)c2)cc1.[Br-] | 17.1 |
| Cc1ccc(N(CC(=O)Nc2c(C)n(C)n(-c3ccccc3)c2=O)S(C)(=O)=O)c(C)c1 | 6.44 |
| CC1=C(C(=O)OCc2cc(C)on2)N2C(=O)[C@@H](NC(=O)OCc3cc(C)on3)[C@H]2SC1 | 3.04 |
| COC(=O)C1CCN(c2ccc([N+](=O)[O-])cc2[N+](=O)[O-])CC1 | 1.53 |

| SMILES | hERG current change (%, negative = inhibition) at 1uM [%] |
| --- | --- |
| CCC1CCCCN1C(=S)NC(=O)c1cc(Br)ccc1Cl (stereo not shown) | 8.27 |
| CC(=C/c1ccccc1)/C=N/n1cnnc1 | 11 |
| CC1(C)NC(=O)N(CCCCOc2ccc(Br)cc2Cl)C1=O | 4.97 |
| CC1CCN(C(=O)COC(=O)CCc2c[nH]c3ccccc23)CC1 | 13.7 |
| Cc1ccc(S(=O)(=O)NCC(=O)N2CCN(c3ccccn3)CC2)cc1 | -3.7 |
| CC(C)c1ccc(CCNC(=O)c2ccc([N+](=O)[O-])cc2)cc1 | 13.6 |
| O=C(Cn1nnc2ccccc21)OCC(=O)c1ccc(Cl)c(Cl)c1 | 6.13 |
| Cc1cc(Cl)ccc1OCC(=O)NNC(=O)C1CCCO1 (stereo not shown) | 9.37 |
| CN(C(=O)COC(=O)c1ccc(C(C)(C)C)cc1)C1CCS(=O)(=O)C1 (stereo not shown) | 6.14 |
| CC(NC(=O)Cc1cccs1)c1ccc2c(c1)OCO2 (stereo not shown) | -4.41 |
| Cc1cccc(C)c1N(CC(=O)N1CCN(c2ccccc2F)CC1)S(C)(=O)=O | 10.4 |
| CCOc1ccc(N/C(=N/c2nc(C)cc(C)n2)NC(C)=O)cc1 | 13.2 |
| O=C(CCOc1ccccc1)Nc1ccnn1C1CCN(CCc2ccccc2)CC1 | -51.4 |
| CC1CCN(CCCNC(=O)C2CCN(S(=O)(=O)N3CCCCC3)CC2)CC1 | 11.9 |
| CCOC(=O)c1c(N)c2cc([N+](=O)[O-])ccc2n1C | 12.7 |
| CN(CC(=O)Nc1cccc(F)c1)C(=O)Cn1cnc2c1c(=O)n(C)c(=O)n2C | 3.18 |
| Cc1ccc(S(=O)(=O)Nc2cccc(-c3ccc4nnc(C)n4n3)c2)s1 | 2.22 |
| Cl.c1ccc(COc2ccc(CNCc3cccnc3)cc2)cc1 | 5.65 |
| COc1ccc(/C=C2\Oc3cc(OCC(=O)N4CCC[C@H]4C(=O)O)ccc3C2=O)cc1OC | -0.209 |
| O=C(C1CC1)N1N=C(c2ccc(Cl)cc2)CC1(O)C(F)(F)F (stereo not shown) | 8.91 |
| COc1cccc(C(=O)C2CCCN(C(=O)CCc3scnc3C)C2)c1 (stereo not shown) | -4.28 |
| O=C(NCc1ccco1)Nc1cccs1 | 6.5 |
| Cc1ccc(N=Cc2c(O)c3ccccc3oc2=O)cc1F | 14 |
